About 230 (0.21%) of roughly 110,000 compounds showed an effect of 50% or more. This is one part of the list.
These compounds were tested against DPAP1 (Plasmodium falciparum, UniProt Q8IIJ9) (assay: primary screen, percent inhibition; read by cleavage of a fluorogenic dipeptide substrate; higher = more effect of the substance).
Set-up: species or system P. falciparum D10 trophozoite lysates; single well
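Further: 30 min substrate incubation versus DMSO and 10 µM JCP410 controls.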

Sequence of DPAP1 (Q8IIJ9 whole entry, looked up): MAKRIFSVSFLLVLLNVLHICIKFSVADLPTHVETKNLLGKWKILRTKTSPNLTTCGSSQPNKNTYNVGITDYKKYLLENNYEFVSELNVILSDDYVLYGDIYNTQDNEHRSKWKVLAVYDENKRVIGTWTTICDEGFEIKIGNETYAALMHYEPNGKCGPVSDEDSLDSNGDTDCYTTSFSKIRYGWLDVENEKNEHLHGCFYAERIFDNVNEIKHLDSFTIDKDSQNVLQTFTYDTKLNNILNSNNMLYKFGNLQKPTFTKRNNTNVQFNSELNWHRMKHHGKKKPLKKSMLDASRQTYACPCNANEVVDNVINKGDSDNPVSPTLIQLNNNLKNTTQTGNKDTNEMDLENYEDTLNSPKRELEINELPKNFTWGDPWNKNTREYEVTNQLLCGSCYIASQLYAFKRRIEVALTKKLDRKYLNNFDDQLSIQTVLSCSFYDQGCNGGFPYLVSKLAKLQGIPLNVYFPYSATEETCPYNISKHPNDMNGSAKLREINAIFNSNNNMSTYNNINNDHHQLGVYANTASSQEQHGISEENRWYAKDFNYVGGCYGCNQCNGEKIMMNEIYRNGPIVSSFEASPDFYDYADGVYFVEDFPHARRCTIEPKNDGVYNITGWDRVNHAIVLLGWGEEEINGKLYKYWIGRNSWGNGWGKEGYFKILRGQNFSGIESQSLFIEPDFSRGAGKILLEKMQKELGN

Structure (SMILES)	% Inhibition @ 10 uM
CC1=CC(C)(C)Nc2ccc(OC(=O)C3CCCO3)cc21 (stereo not shown)	2.22%
COc1cc(/C=C2/C(=N)N3C(c4ccccc4)=CSC3=NC2=O)ccc1OCC(=O)O	3.15%
CC1=C(C#N)C(c2ccc(N(C)C)cc2)C2=C(O)CCCC2=N1 (stereo not shown)	-6.17%
CC(C)NS(=O)(=O)c1ccc(CCC(=O)N2CCc3ccccc3C2)cc1	0.528%
Cc1nn(C(C)C(=O)NCc2ccc(Cl)cc2)c(=O)c2cc3sccc3n12 (stereo not shown)	3.4%
N#Cc1ccc(C(=O)Nc2ccc(-c3nc4ccccc4s3)cc2)cc1	-2.12%
c1cc(N2CCNCC2)nc(N2CCNCC2)n1	-4.96%
O=C(CCCN1C(=O)C(c2ccccc2)Oc2cccnc21)NCCc1ccc(Cl)cc1 (stereo not shown)	-6.61%
CC1=CC(C)C2(CO)COC(c3ccccc3)C1C2C (stereo not shown)	4.65%
Cc1ccc(-n2ncc3c(O)nc(SC(C)C)nc32)cc1	-3.35%
Cc1cc(/C=C\c2ccc(Cl)cc2)cs1	-2.45%
Cc1ccccc1C(=O)Nc1cc(Cl)cc(Cl)c1	0.526%
CC1(C)Cc2c(c(S)sc(=N)c2C#N)CO1	8.27%
CCOc1ccc(S(=O)(=O)N(CC(=O)N2CCc3ccccc3C2)c2ccc(C)cc2)cc1	4.12%
CCC(C)c1ccc(-n2c(C)cc(/C=C3/C(=N)N4C=CSC4=NC3=O)c2C)cc1 (stereo not shown)	-1.17%
CC(NC(=O)c1ccccc1NC(=O)CN1C(=O)c2ccccc2S1(=O)=O)c1ccccc1 (stereo not shown)	2.95%
CC1CC(C)CN(C(=O)C(Cc2ccccc2)NS(=O)(=O)c2cccc3nsnc23)C1 (stereo not shown)	2%
COCCNC(=O)c1cnn(-c2ccc(F)cc2)c1-n1cccc1	-8.21%
CCC(Sc1nc2cccnc2[nH]1)C(=O)N(Cc1ccccc1)C(C)C (stereo not shown)	-5.88%
Cc1ccc(S(=O)(=O)Nc2ccc3c(c2)ncn3C(C)(C)C)cc1	-2.37%
Cc1cc(O)c(Cn2c3ccccc3c3ccccc32)cc1C	0.526%
Cn1cc(/C=C2/SC(=O)N(CC(=O)N3CCN(c4ccccc4)CC3)C2=O)c2ccccc21	2.01%
CC(CCc1ccc(O)cc1)Nc1ccccc1F (stereo not shown)	-6%
Cc1ccc(NC(=O)Nc2cccs2)nc1	0.0882%
O=c1cccc2n1CC1CC2CN(Cc2nnc(-c3ccc4c(c3)OCO4)o2)C1 (stereo not shown)	-5.05%

Structure (SMILES)	% Inhibition @ 10 uM
CSC1=C(C#N)C(c2ccc(OCc3ccccc3)cc2)C2=C(O)CCCC2=N1 (stereo not shown)	-5.08%
Cc1ccc(C)c(CSc2nncn3c2cc2oc(C)cc23)c1	4.92%
CC(C)C[C@H](NC(=O)N1CCC(Cc2ccccc2)CC1)C(=O)NCC#N	-0.207%
CCOc1ccc(/C=C2/N=C(c3ccc(OC)c(Br)c3)OC2=O)cc1	2.28%
C=CCOc1ccccc1CN(CC)CCN(CC)CC	-4.04%
O=C(c1cc([N+](=O)[O-])cc([N+](=O)[O-])c1)N1CCCC1	-4.61%
CCOc1ccc(CCNC(=O)c2cn(CC)c3nc(C)ccc3c2=O)cc1OCC	4.35%
Cc1nn(CCCC(=O)N2CCN(c3ccccn3)CC2)c(=O)c2cc3sccc3n12	1.8%
O=C(O)COc1ccc(Br)cc1C1C2=C(O)CCCC2=NC2=C1C(=O)CCC2 (stereo not shown)	3.05%
COc1ccc(-c2c(C)nn3c(O)cc(C(F)(F)F)nc23)cc1	0.132%
Cc1ccc(NC(=O)c2cccnc2)cc1Cl	0.247%
COC(=O)c1cc(S(=O)(=O)N(Cc2ccccc2OC)C2CCN(C)CC2)cn1C	0.0489%
O=C(Cn1nc(-c2ccc(Cl)cc2)ccc1=O)NCCCN1CCOCC1	-3.58%
COc1ccc(C(=O)Nc2cc(Cl)ccc2Cl)cc1N	-2.47%
CN1CCN(C(=O)c2ccc(-n3cnc4cccnc43)cc2)CC1	6.18%
CC(C)Sc1nnnn1-c1ccccc1	-6.55%
CC1CCCN(C2CC(=O)N(c3ccc(N4C(=O)CC(N5CCCC(C)C5)C4=O)cc3)C2=O)C1 (stereo not shown)	-6.4%
CC(C)C[C@H](NC(=O)OCC1CCC1)C(=O)NCC#N	-1.41%
O=C(NCC1CCCO1)C1CC2CCC1C2 (stereo not shown)	-3.32%
O=C(CCN1CCc2ccccc2C(O)(c2ccccc2)C1)c1ccc2c(c1)OCCO2 (stereo not shown)	-1.22%
CCc1ccc(C2C(C#N)=C(N)OC3=C2C(=O)CC(c2ccccc2)C3)cc1 (stereo not shown)	1.96%
COCCCn1c(=N)c(C(=O)NC(C)c2ccccc2)cc2c(=O)n3ccccc3nc21 (stereo not shown)	1.97%
Cc1ccnc(-n2c(C)cc(/C=C3/NC(=O)N(c4ccccc4)C3=O)c2C)c1	-3.72%
CCN(CC)C(=O)CN(Cc1ccc(Cl)c(Cl)c1)S(=O)(=O)c1ccc(Cl)cc1	-1.95%
COc1ccc(C(=N)NOC(=O)c2ccc(C(C)(C)C)cc2)cc1	-5.08%

Structure (SMILES)	% Inhibition @ 10 uM
C/C=C\CC(NC(=O)c1ccccc1)C(=O)NCC#N (stereo not shown)	-6.98%
O=C(/C=C(\Nc1ccc(S(=O)(=O)Nc2ccc3ccccc3c2)cc1)c1ccccc1)c1ccccc1	-0.736%
Cn1c(=O)c2c(ncn2CC(=O)Nc2ccccc2)n(C)c1=O	13.5%
CC(CC(C)C(=O)Nc1ccccc1)C(=O)O (stereo not shown)	-2.65%
Cc1scc(CN2CCN(Cc3ccc4c(c3)OCO4)CC2)c1C	3.1%
COc1ccccc1-c1ccc(C(=O)N[C@@H](CC(C)C)C(=O)NCC#N)o1	-3.04%
CCOC(=O)c1c(CN2CCCCC2C)oc2ccc(OC)cc12 (stereo not shown)	4.08%
N#Cc1cn(-c2ccccc2)nc1C(=O)c1ccccc1	-0.759%
COc1ccc(C(=O)N2CCN(c3ccc(C)c(Cl)c3)CC2)cc1OC	0.475%
COc1ccc(OC)c(/C=C2\N=C(c3cc(OC)c(OC)c(OC)c3)OC2=O)c1	-0.265%
C=CCN1C(=O)N/C(=C/c2ccc(OC)c(C)c2)C1=O	-10.2%
Cc1cccc(CNC(=O)C2CCCN(c3nn4c(=O)cc(C)nc4s3)C2)c1 (stereo not shown)	-1.6%
O=c1c(-c2ccccc2)c(O)cc(-c2ccncc2)n1-c1ccccc1	4%
CC(NC(=O)/C(=C\c1ccccc1)NC(=O)c1ccco1)C(=O)O (stereo not shown)	0.587%
COc1cc(C(=O)Nc2c(-c3ccc(F)cc3)nc3ccccn23)cc(OC)c1OC	-0.58%
CCOc1ccc(C2C(C#N)=C(N)N(c3nc[nH]n3)C3=C2C(=O)CC(C)(C)C3)cc1 (stereo not shown)	3.99%
C=CCOc1ccccc1/C=C1\C(=O)ON=C1c1ccccc1	-5.85%
COc1cccc(C(=O)OCCN(C)Cc2ccccc2)c1	5.4%
Cc1cccc(NC(=O)Cc2ccc(-c3ccccc3)cc2)c1C	-3.03%
COCCNC(=S)N(CCc1c(C)[nH]c2ccccc12)Cc1cc(OC)c(OC)c(OC)c1	2.17%
O=C1CSc2ccc(S(=O)(=O)Nc3ccccc3)cc2N1	0.188%
Cc1ccc(NC(=O)Cn2ncc3c2-c2cc(C)ccc2OC3)nc1	-3.84%
CC(NC(=O)c1ccc(CS(=O)(=O)c2ccc(Cl)cc2)o1)c1ccccc1 (stereo not shown)	-2.72%
CC1CCCC(N2CC(=O)N(CCc3ccccc3)C(c3ccc(F)cc3)C2=O)C1C (stereo not shown)	1.27%
Cc1ccc(OCCCn2ccnc2)cc1C	-9.96%

Structure (SMILES)	% Inhibition @ 10 uM
CC(C)CC(C(=O)NCC#N)c1cccc(-c2ccc(S(=O)(=O)N3CCN(CCO)CC3)s2)c1 (stereo not shown)	1.52%
COc1cc(C2C(C#N)=C(N)Oc3ccc4ccccc4c32)cc(OC)c1OC (stereo not shown)	-7.55%
COc1ccc(C(=O)NCc2cn(C)nc2C)cc1	4.61%
COc1ccc(C(CC(=O)Nc2cccnc2)N2Cc3ccccc3C2=O)cc1 (stereo not shown)	-8.48%
CCOC(=O)c1ccc(CNC(=O)[C@H](Cc2ccccc2)N2Cc3ccccc3C2=O)cc1	1.26%
CC(C)COc1ccccc1O	1.76%
CCn1cc(/C=C(\NC(=O)c2cc(OC)c(OC)c(OC)c2)C(=O)NC(C)C)c2ccccc21	-1.74%
O=C(Nc1ccc(F)c(Cl)c1)c1cccc(OC(F)F)c1	0.709%
O=C(Cn1c(=O)c2cccn2c2cccnc21)NCCCN1CCc2ccccc2C1	-2.97%
COCCCNc1nc2ccc(C)cc2n2nnnc12	-8.88%
CCOc1cc(/C=C2/S/C(=N/c3ccccc3)N(C)C2=O)ccc1OC	5.37%
CCOC(=O)C(C#N)=C1CCCCC1	1.42%
O=C(CN1C(=O)c2cccc3cccc1c23)Nc1ccc(S(=O)(=O)Nc2ccc(Cl)cc2)cc1	6.15%
CCCCCNC(=O)c1ccc2c(c1)nc(C)n2-c1cc(C)ccc1OC	-7.73%
O=C1c2oc3ccccc3c(=O)c2C(c2ccc(O)cc2)N1Cc1ccccc1Cl (stereo not shown)	-1.33%
CCCCNc1nc(-c2ccccc2)nc(-n2ccnc2)n1	-6.28%
CCCn1c(CCC(=O)NC2CCN(C(=O)OCC)CC2)nc2cccnc21	-9.07%
Cc1sc2ccc3ccccc3c2[n+]1CCC(C)S(=O)(=O)O (stereo not shown)	-1.93%
COc1ccccc1OCC(=O)Nc1ccccc1C(=O)NC(C)c1ccccc1 (stereo not shown)	5.99%
Cc1sc2nc(SCc3ccc(C(=O)NCCO)cc3)nc(O)c2c1C	-0.339%
Nc1nc(/C=C/c2cccc([N+](=O)[O-])c2)cc(/C=C/c2cccc([N+](=O)[O-])c2)n1	-0.999%
CCOc1ccc(C2C3=C(CC(C)(C)CC3=O)N(CCOC)C3=C2C(=O)CC(C)(C)C3)cc1OCC	2.33%
